From PubChem BioAssay AID624417 (National Center for Advancing Translational Sciences (NCATS), 2012)
Screen size: about 410,000 compounds; about 6,400 (1.6%) were called active. Inconclusive means that the source gave no clear call. Such entries were picked first, then a sample of the others. Calls follow the shape of the dose curve; as a rule, active = well fitted inhibition curve with a large enough effect; inconclusive = small, poorly fitted or top-dose-only effect; inactive = no such curve, though single readings can be large or run the other way. No potency is given beside an inconclusive call; the fits are too rough.

Biological target: Glucagon-like peptide 1 receptor (Homo sapiens) (UniProt P43220)
Assay: qHTS of GLP-1 Receptor Inverse Agonists (Inhibition Mode); also: nearly all actives have a fitted effect of over 55% in size
Conditions: HEK293 GLP-1R CRE-luciferase, luminescence, 24 h, GLP-1R form is constitutively active; series mostly up to 38.3 µM
In short: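 GLP-1R inverse agonism mode: basal reporter luminescence in engineered HEK293 cells measured after one day of compound exposure at 37 deg C, with a 12 min room-temperature detection step.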
Potency is read from the fitted curve at half-maximal effect; tags tell the direction and shape of the fitted curve.

UniProt P43220, sequence (P43220 whole entry, looked up): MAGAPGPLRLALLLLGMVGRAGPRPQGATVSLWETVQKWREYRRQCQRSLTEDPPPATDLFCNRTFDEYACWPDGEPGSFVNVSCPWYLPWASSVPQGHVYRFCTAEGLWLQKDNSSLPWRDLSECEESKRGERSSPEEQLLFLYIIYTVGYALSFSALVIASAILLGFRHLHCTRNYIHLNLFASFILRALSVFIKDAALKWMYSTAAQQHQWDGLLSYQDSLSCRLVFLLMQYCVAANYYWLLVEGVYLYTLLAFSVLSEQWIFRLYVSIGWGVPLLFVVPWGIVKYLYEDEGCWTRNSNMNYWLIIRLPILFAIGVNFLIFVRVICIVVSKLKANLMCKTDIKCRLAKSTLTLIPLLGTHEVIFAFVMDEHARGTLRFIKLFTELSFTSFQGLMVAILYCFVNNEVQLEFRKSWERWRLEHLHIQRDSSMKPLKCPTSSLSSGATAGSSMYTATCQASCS

SMILES | Potency
CCCn1c(NC(=O)C2CCN(C(=O)c3ccc(F)cc3)CC2)nc2ccccc21 | inactive
COc1cc(CN2CCN(Cc3cn(C)c4ccccc34)CC2CCO)cc(OC)c1 (configuration not stated) | inconclusive [inhibitor, partial curve, poor fit]
C=CCOc1ccc(C2N3CC4(C)CN2CC(CCC)(C3)C4=O)cc1 (configuration not stated) | inconclusive [inhibitor, partial curve, poor fit]
CCOc1ccccc1NC(=O)COC(=O)C(CC)c1ccccc1 (configuration not stated) | inconclusive [inhibitor, single point]
CN(Cc1cn(C)c2ccccc12)C(=S)Nc1cc(F)cc(F)c1 | inconclusive [inhibitor, single point]
Cn1c(C(C#N)C(=O)c2ccco2)nc2ccccc21 (configuration not stated) | inconclusive [inhibitor, single point]
O=C(NCc1ccc(F)cc1)C(c1ccccc1)N(CC1CCCO1)C(=O)Cn1nnc2ccccc21 (configuration not stated) | inconclusive [inhibitor, partial curve, poor fit]
CCOc1ccc(NC(=O)CN(C)C(=O)CCCOc2ccc(Br)cc2)cc1OCC | active: 10 µM
O=C(COc1cccc2ccccc12)N1c2ccccc2CCc2ccccc21 | inconclusive [inhibitor, full curve, poor fit]
CCCCNC(=O)[C@@](CC)(ONc1ccccc1C(F)(F)F)c1cccc2ccccc12 | inconclusive [inhibitor, single point]
Cc1cc(OCc2cc(C(=O)N3CCCCCC3)no2)cc(C)c1Cl | inconclusive [inhibitor, partial curve, poor fit]
CC1(C(=O)NCc2ccccc2Br)CCN1C(=O)C1(c2ccc(Cl)cc2)CC1 (configuration not stated) | inconclusive [inhibitor, partial curve, poor fit]
CCSc1ccc(/C(N)=N/OC(=O)c2cccs2)cn1 | inactive
Cc1ccc(C)c(CSc2cn(CCNC(=O)c3ccccc3F)c3ccccc23)c1 | inconclusive [inhibitor, single point]
CCCc1c(C(=O)N/N=C(\C)c2ccc(O)cc2)nnn1-c1nonc1N | inactive
CCNC(=O)CN(c1ccc(Oc2ccccc2)cc1)S(=O)(=O)c1ccccc1 | inconclusive [inhibitor, single point]
Cc1cc(NC(=O)c2ccc(C)s2)n(-c2nc3ccccc3[nH]2)n1 | inconclusive [inhibitor, full curve, poor fit]
Cc1cccc(NC(=S)NNC(=O)c2ccccc2OC(F)F)c1 | inactive
COC(=O)C1=C(C(=O)OC)[C@@H]2N(C)c3ccccc3[C@@]23C[C@@H](C(=O)OC)N(C(=O)CC(C)C)C3=N1 | inconclusive [inhibitor, single point]
c1ccc(-c2noc(-c3ccc4ccccc4c3)n2)nc1 | inconclusive [inhibitor, full curve, poor fit]
CC(C)(C)OC(=O)N1Cc2ccccc2C[C@H]1C(=O)NCC(=O)Nc1ccc2c(c1)OCCO2 | inconclusive [inhibitor, partial curve, poor fit]

SMILES | Potency
COC(=O)CNc1cc(S(=O)(=O)N2CCCCC2)ccc1Oc1ccc(C(=O)OC)cc1 | inconclusive [inhibitor, partial curve, poor fit]
Cc1occc1C(=O)Nc1cccc2ccccc12 | inconclusive [inhibitor, single point]
O=C(COc1ccccc1[N+](=O)[O-])Nc1ccc(N2CCN(C(=O)c3cccs3)CC2)cc1 | inconclusive [inhibitor, single point]
Cc1cccc(Oc2ccc(NC(=O)CCC(=O)OCC(=O)c3ccc(Br)cc3)cc2)c1C | inactive
CC(C)CCNC(=O)C(CC(C)C)N(Cc1ccc2c(c1)OCO2)C(=O)c1snc(C(N)=O)c1N (configuration not stated) | inconclusive [inhibitor, single point]
O=C(COc1ccc2c(-c3ccccc3)cc(=O)oc2c1)NCCCN1CCOCC1 | inconclusive [inhibitor, full curve, poor fit]
O=C(CCS(=O)(=O)c1ccccc1)Nc1nnc(C(F)(F)F)s1 | inconclusive [inhibitor, full curve, poor fit]
Cc1ccc(NC(=O)C2CCC2)cc1S(=O)(=O)N1CCCCCC1 | inconclusive [inhibitor, partial curve, poor fit]
CCn1nnc2cc(C(=O)Nc3cccc(C)c3C)ccc21 | inactive
Cc1ccc(/C(O)=C2/C(=O)C(=O)OC2c2ccc(Cl)cc2)cc1 (configuration not stated) | inconclusive [inhibitor, partial curve, poor fit]
Cc1ccc(C)c(N2CCN(S(=O)(=O)c3csc(C(N)=O)c3)CC2)c1 | inconclusive [inhibitor, partial curve, poor fit]
Cc1ccccc1CN1CCN(Cc2ccc3cccc(F)c3n2)CC1CCO (configuration not stated) | inconclusive [inhibitor, partial curve, poor fit]
COC(=O)C1=CN(Cc2cccs2)C=C(C(=O)OC)C1c1cccc(Cl)c1 | inconclusive [inhibitor, partial curve, poor fit]
COc1ccccc1CNC(=O)c1cc2ccc3ccc(C)[nH]c3c2n1 | active: 10 µM
COC(=O)c1ccc(CSc2nnc(CS(=O)Cc3ccc(Br)cc3)n2-c2ccccc2)cc1 (configuration not stated) | inconclusive [inhibitor, partial curve, poor fit]
O=C(Nc1ccc(Cl)cc1)C1C2C=CC3(O2)C1C(=O)N(CCN1CCCCC1)C3C(=O)NC1CCCCC1 (configuration not stated) | inconclusive [inhibitor, partial curve, poor fit]
Cc1cccc(CC(=O)Nc2cccc(-c3nc4cccnc4s3)c2)c1 | inactive
COc1ccccc1NC(=O)CNC(c1ccccc1)c1ccccc1 | inconclusive [inhibitor, partial curve, poor fit]
COc1ccc(C(NC(=O)c2cccnc2)c2cc(Cl)c3cccnc3c2O)cc1OC (configuration not stated) | inconclusive [inhibitor, single point]
CCCN1CCC(NC(=O)Nc2ccc([N+](=O)[O-])cc2)CC1 | inconclusive [inhibitor, single point]
Cc1nc2ccccc2nc(C)c1=NOCC(=O)N(c1ccccc1)C(C)C | inconclusive [inhibitor, single point]

SMILES | Potency
CCc1noc(C)c1C(=O)OC(C)C(=O)c1c(C)[nH]c2ccccc12 (configuration not stated) | inconclusive [inhibitor, single point]
Nc1c(N(Cc2ccccc2)C(=O)COc2ccc([N+](=O)[O-])cc2)c(=O)[nH]c(=O)n1Cc1ccccc1 | inconclusive [inhibitor, full curve]
CC1CCCC(NC(=O)CN2C(=O)NC(Cc3c[nH]c4ccccc34)C2=O)C1C (configuration not stated) | inconclusive [inhibitor, full curve]
COc1ccc(C(NC(=O)C2CCN(CCCc3ccccc3)CC2)c2ccccn2)cc1 (configuration not stated) | inactive
Cn1c(=O)c2cc(NC(=O)Nc3cccnc3)ccc2n1-c1ccc(C(C)(C)C)cc1 | inconclusive [inhibitor, full curve]
Clc1ccccc1-c1nnc(-c2ccccc2CNc2ccccc2)o1 | inactive
Cc1cccc(N2CCN(CC(O)COc3ccccc3Cl)CC2)c1 (configuration not stated) | inconclusive [inhibitor, partial curve, poor fit]
Cc1cc(C)c(NC(=O)c2ccccc2C(=O)c2ccccc2)c(C)c1 | inconclusive [inhibitor, single point]
COc1ccc(Cl)c(NC(=O)NCCN2CCN(c3ccccc3)CC2)c1 | inconclusive [inhibitor, full curve]
Cc1ccc(OCCC(=O)N2CCN(c3ccc(O)cc3)CC2)cc1 | inconclusive [inhibitor, full curve, poor fit]
Cc1[nH]n2c(=O)c3c(nc2c1-c1cccc2ccccc12)CCC3 | inconclusive [inhibitor, single point]
Cc1ccc(NC(=O)CN2C(=O)NC(C)(c3ccc(Cl)cc3)C2=O)c(Br)c1 (configuration not stated) | inconclusive [inhibitor, partial curve, poor fit]
CCCCC(=O)Nc1cccc(NC(=O)c2cccc(Br)c2)c1 | inconclusive [inhibitor, single point]
C(=N\Nc1ccccn1)/c1ccc(N2CCOCC2)cc1 | inactive
CCCn1nc(C(=O)NNC(=O)c2ccc(OC(F)F)cc2)c2ccccc2c1=O | inactive
Cc1cc2nc(-c3ccccc3)c(Cc3cccc(Cl)c3)n2c(C)c1Br | inconclusive [inhibitor, single point]
CC1CCN(C(=O)Nc2cccc(NC(=O)N3CCC(C)CC3)c2)CC1 | inconclusive [inhibitor, partial curve, poor fit]
COc1ccc(S(=O)(=O)NC2CC(C)(C)NC(C)(C)C2)c2ccccc12 | inconclusive [inhibitor, partial curve, poor fit]
CC(C)(C)c1ccc(C(O)c2ncc(-c3ccccc3F)[nH]2)cc1 (configuration not stated) | inconclusive [inhibitor, single point]
CC(=O)c1c(C)[nH]c(C(=O)COC(=O)C2(C)CC2(Cl)Cl)c1C (configuration not stated) | inconclusive [inhibitor, partial curve, poor fit]
